Measured values: PubChem BioAssay AID889 (National Center for Advancing Translational Sciences (NCATS), 2007)
Values joined by “and” are separate entries in the source; they are usually repeats but may differ in a detail not shown here. Identical values can stand only once. The campaign covered roughly 75,000 compounds. About 15 (0.02%) were called active. Inconclusive means that the source gave no clear call. Such entries were picked first, then a sample of the others. Calls follow the shape of the dose curve; as a rule, active = well fitted inhibition curve with a large enough effect in the main read-out, with a control signal flat (not every such curve was filed as active); inconclusive = small, poorly fitted or top-dose-only effect, or a change in a side signal; inactive = flat fitted curve, though single readings scatter. Potencies beside an inconclusive call are fits to weak or partial responses and may not hold up. “Side channel” marks fits to a control or component signal instead of the main read-out.

molecular target: Caspase-7 (Homo sapiens) (UniProt P55210); experiment: qHTS Assay for Allosteric/Competitive Inhibitors of Caspase-7; settings: recombinant caspase-7, Ac-DEVD-AFC fluorescence rate; activity change, negative = inhibition: at 57.5 µM (top of the series) unless noted; as to activity change, negative = inhibition: % of control where 0% means no effect
Potency is read from the fitted curve at half-maximal effect; tags tell the direction and shape of the fitted curve or compound fluorescence and quenching.

Chain of UniProt P55210 (P55210 whole entry, looked up): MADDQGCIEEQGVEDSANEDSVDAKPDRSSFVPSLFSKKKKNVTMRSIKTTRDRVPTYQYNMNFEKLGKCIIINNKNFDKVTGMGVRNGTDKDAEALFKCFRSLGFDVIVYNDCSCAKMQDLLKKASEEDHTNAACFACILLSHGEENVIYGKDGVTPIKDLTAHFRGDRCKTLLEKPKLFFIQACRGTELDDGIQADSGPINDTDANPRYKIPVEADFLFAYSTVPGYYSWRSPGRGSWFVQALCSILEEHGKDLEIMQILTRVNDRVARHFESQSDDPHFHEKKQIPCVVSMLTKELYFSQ

Compound	Potency	activity change, negative = inhibition
COc1ccc(-c2nc3cnc(N4CCNCC4)nc3n(C3CC3)c2=O)cc1	inconclusive: 10 µM [fluorescent, side channel, partial curve]	
O=C(c1ccco1)[C@@H]1[C@@H]2C(=O)N(c3ccc(Br)cc3)C(=O)[C@@H]2C2c3ccccc3C=CN21 (stereo partly drawn)	inconclusive: 10 µM [fluorescent, side channel, partial curve]	
O=C(Nc1ccc(CN2CCOCC2)cc1)c1cc2ccccc2o1	inactive	
Cc1ccc(C)c(S(=O)(=O)C(C#N)c2nc3ccccc3nc2N2CCCC2)c1 (stereo not drawn)	inconclusive: 25.1 µM [fluorescent, partial curve]	
C=C(c1cccc2ccccc12)P(=O)(O)O	inactive	
COc1ccccc1NC(=O)N1CCc2[nH]c3ccc(Cl)cc3c2C1	inconclusive: 25.1 µM [fluorescent, side channel, partial curve]	
COCCn1c(=O)c(-c2cn(C)c3ccccc23)nc2cnc(OCc3ccccc3)nc21	inconclusive: 0.794 µM [inhibitor, partial curve]	
COCCn1c(=O)c(-c2ccc(F)cc2)nc2cnc(OCc3ccccc3)nc21	inconclusive: 31.6 µM [inhibitor, single point]	
Cc1ccc2[nH]c(=O)c(CNC(C)(C)C)cc2c1	inconclusive: 31.6 µM [fluorescent, side channel, single point]	
CCOC(=O)c1cc2c(=O)n3ccccc3nc2n(CC2CCCO2)c1=NC(C)=O (stereo not drawn)	inconclusive: 10 µM [fluorescent, side channel, partial curve]	
NC(=O)C1(N2CCCCC2)CCN(C(=O)c2cccn3c(=O)c4cc(Cl)ccc4nc23)CC1	inconclusive: 15.8 µM [fluorescent, partial curve]	
CCOCCCn1c(=N)c(C(N)=S)cc2c(=O)n3cccc(C)c3nc21	inconclusive: 10 µM [fluorescent, side channel, partial curve]	
O=c1c(-c2cc(F)cc(F)c2)nc2cnc(N3CCNCC3)nc2n1Cc1ccc(F)cc1	inconclusive: 12.6 µM [fluorescent, partial curve]	
COCCn1c(=N)c(C(=O)NCCc2ccc(OC)cc2)cc2c(=O)n3cccc(C)c3nc21	inconclusive: 7.94 µM [fluorescent, partial curve]	
COCCn1c(=NC(=O)c2ccc3c(c2)OCO3)c(C#N)cc2c(=O)n3cccc(C)c3nc21	inconclusive: 1.26 µM [fluorescent, side channel, partial curve]	
Cc1cccc(NC(=O)c2sc3nc(-c4ccccc4)cn3c2C)n1	inconclusive: 31.6 µM [fluorescent, single point]	
COC(=O)C1=C(C)N(Cc2ccccc2)C2=C(C(C)=O)C(c3ccccc3)[C@@](O)(C(=O)OC)C(=O)N2C1c1ccccc1 (stereo partly drawn)		inactive: -2.08% [at 11.5 µM] and inactive: 2.55% [at 11.5 µM]
CN1CCN(c2ncc3nc(-c4cc(F)cc(F)c4)c(=O)n(C4CC4)c3n2)CC1	inconclusive: 12.6 µM [fluorescent, side channel, partial curve]	
O=C(NCCc1cn2ccsc2n1)c1cccs1	inconclusive: 15.8 µM [fluorescent, side channel, partial curve]	
Cc1cc(=O)oc2cc(OC(C)C(=O)N3CCCc4ccccc43)ccc12 (stereo not drawn)	inactive	
COCCn1c(=O)c(-c2cccs2)nc2cnc(Nc3ccccc3)nc21	inconclusive: 2.51 µM [fluorescent, side channel, full curve]	

Compound	Potency	activity change, negative = inhibition
C[C@H]1COC(=O)[C@H](Cc2ccccc2)NC(=O)[C@@H](C)COC(=O)[C@H](Cc2ccccc2)NC1=O		inactive: -0.0076% [at 11.5 µM]
Cc1nc2cnc(N(C)C)nc2n(CCC#N)c1=O	inconclusive: 12.6 µM [inhibitor, partial curve]	
CCC(=Nc1ccc(N)cc1)C1=C(O)C(C(=O)OC)C(C)(C)CC1=O (stereo not drawn)	inconclusive: 25.1 µM [fluorescent, side channel, single point]	
Cn1c(=O)c(-c2ccc(Cl)cc2)nc2cnc(N3CCNCC3)nc21	inconclusive: 6.31 µM [fluorescent, side channel, partial curve]	
N#CCCn1c(=O)c(-c2ccccc2)nc2cnc(Oc3ccccc3)nc21	inconclusive: 25.1 µM [fluorescent, single point]	
O=C(Cc1cn2ccsc2n1)Nc1nc2c(s1)CN(Cc1ccccc1)CC2	inconclusive: 31.6 µM [inhibitor, single point]	
O=C(c1csnn1)N1CCC2(CC1)CCN(C(c1ccccc1)c1ccccc1)CC2	inactive	
CC(=O)Nc1nc2n(n1)C(c1ccccc1)C=C(c1ccccc1)N2 (stereo not drawn)	inconclusive: 25.1 µM [fluorescent, side channel, partial curve]	
O=c1c(-c2cccs2)nc2cnc(Nc3ccccc3)nc2n1C[C@H]1CCCO1	inconclusive: 2.51 µM [fluorescent, full curve]	
C=CCNc1oc(-c2cccc3ccccc23)nc1C#N	inconclusive: 31.6 µM [fluorescent, single point]	
CCC(C)n1c(-c2cccs2)nc2nc3ccccc3nc21 (stereo not drawn)	inconclusive: 15.8 µM [fluorescent, partial curve]	
COc1cc2c(cc1OC)CN(C(=O)CSc1nc3[nH]ncc3c(=O)n1-c1ccccc1)CC2	inconclusive: 15.8 µM [inhibitor, partial curve]	
COc1ccc(-c2cc(C(F)(F)F)n3nc(C(=O)N4CCCCC4)cc3n2)cc1	inconclusive: 15.8 µM [fluorescent, side channel, partial curve]	
CS(=O)(=O)N1CCC2(CC1)CN(c1ccccn1)C2	inactive	
Cc1ccc2[nH]c(=O)c(CN(CCc3ccccc3)Cc3nnnn3CC3CCCO3)cc2c1 (stereo not drawn)	inconclusive: 25.1 µM [inhibitor, single point]	
O=C(CCCC(=O)N1CCCc2ccccc21)N1CCCc2ccccc21	inactive	
CCOC(=O)c1ccc2nc(NC(=O)c3cccs3)sc2c1	inactive	
CC(C)OC(=O)c1c(NC(=O)c2cccs2)sc2c1CCCC2	inconclusive: 25.1 µM [fluorescent, partial curve]	
CCOc1ccc2[nH]c(=O)c(CN(Cc3nnnn3CCc3ccccc3)CC3CCCO3)cc2c1 (stereo not drawn)	inconclusive: 31.6 µM [fluorescent, single point]	
COc1ccc(-c2nc3cnc(N4CCOCC4)nc3n(-c3ccc(OC)cc3)c2=O)cc1	inconclusive: 3.98 µM [fluorescent, side channel, partial curve]	
COc1ccc(CCNc2cc(=O)[nH]c(N)n2)cc1	inactive	

Compound	Potency	activity change, negative = inhibition
Cc1cc(Cl)nc(NC(=O)CSc2ccc(Cl)cc2)n1		inactive: 4.82% [at 11.5 µM]
CC(C)(CO[C@H]1C[C@H]2CC[C@@]1(C)C2(C)C)[N+](=O)[O-]		inactive: -0.296% [at 11.5 µM]
CN(C)c1ccc(-c2nn3c(-c4ccccc4Cl)nnc3s2)cc1	inconclusive: 31.6 µM [inhibitor, single point]	
COc1cccc(C2C=C(c3ccc(Br)s3)Nc3ncnn32)c1OC (stereo not drawn)	inconclusive: 20 µM [fluorescent, side channel, partial curve]	
CCOc1ccc(NS(=O)(=O)c2ccc(C)c(C(=O)O)c2)cc1	inactive	
O=C(c1ccccc1)c1ccccc1C(=O)N1CCCC1	inactive	
CCOc1ccc(N(CC(=O)Nc2ccc(C)cc2)S(=O)(=O)c2c(C)noc2C)cc1	inactive	
O=c1c(-c2ccc(F)cc2)nc2cnc(N3CCOCC3)nc2n1Cc1ccc(F)cc1	inconclusive: 0.794 µM [inhibitor, full curve]	
COc1ccc2[nH]cc(CCNc3ncncc3-c3ccc4c(c3)OCO4)c2c1	inconclusive: 25.1 µM [inhibitor, single point]	
COc1cccc(Cn2c(=O)c(-c3ccc(F)cc3)nc3cnc(N4CCOCC4)nc32)c1	inconclusive: 0.501 µM [inhibitor, full curve]	
COC(=O)c1cc(Br)ccc1-c1ccc(/C=N/n2nnnc2N)o1	inconclusive: 25.1 µM [inhibitor, single point]	
Cc1nc(N=Nc2ccc(S(=O)(=O)O)cc2S(=O)(=O)O)c(COP(=O)(O)O)c(C=O)c1O	inconclusive: 31.6 µM [inhibitor, partial curve]	
COc1ccc(C(=O)Nc2cccc(C)c2)cc1S(=O)(=O)N1CCOCC1	inactive	
Cc1cc(NCCCN2CCOCC2)n2ncc(-c3ccccc3)c2n1	inactive	
Cc1cc(C)n2nc(SCC(=O)Nc3c(C)nn(-c4ccccc4)c3C)nc2n1	inactive	
Cn1c(=N)c(S(=O)(=O)c2ccc(F)cc2)cc2c(=O)n3ccccc3nc21	inconclusive: 2 µM [fluorescent, side channel, full curve]	
Cc1c(O)c(CN2CCCC2)cc2c3c(c(=O)oc12)CCC3	inconclusive: 12.6 µM [fluorescent, side channel, partial curve]	
O=C1C=C(NCc2ccccc2)C2(CCCCC2)O1	inactive	
CCSc1nc2c([nH]c3ccccc32)c(=O)n1C	inactive	
O=C(CN1C(=O)COc2ccccc21)N(Cc1cccnc1)Cc1ccccc1F	inactive	
COC(=O)C1(Cc2ccccc2)C=C2C(=C(c3ccccc3)C(=O)C2C)CN1 (stereo not drawn)	inconclusive: 20 µM [inhibitor, partial curve]	
